Measurements from PMC12136788.
Some of the results follow.

T1: UNK ZnF1-6 (called full-length) (human, UniProt Q9C0B0 30-357)
T1 sequence: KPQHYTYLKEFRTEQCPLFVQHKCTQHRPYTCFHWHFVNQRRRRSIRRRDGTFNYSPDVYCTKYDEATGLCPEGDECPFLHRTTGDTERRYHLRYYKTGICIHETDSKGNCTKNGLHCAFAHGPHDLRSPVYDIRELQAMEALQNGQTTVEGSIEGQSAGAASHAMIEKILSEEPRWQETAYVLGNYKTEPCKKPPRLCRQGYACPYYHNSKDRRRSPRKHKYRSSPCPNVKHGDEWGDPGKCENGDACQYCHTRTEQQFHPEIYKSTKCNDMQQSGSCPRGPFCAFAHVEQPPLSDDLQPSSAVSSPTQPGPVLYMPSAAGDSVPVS

B1: chr9:88475159:88475277:+|CDS|ENSG00000106723|unk|total|mutant (ssRNA)
RNA: GGGAGUUCUACAGUCCGACGAUCACAAGUGGAAUAUGCCAAAGAAGAUGGCUCGAAAAGGACUGGCAUGGUCAUUCAUCAAGCCGAAGCCAAGCCCUCCGUCUAUUUCAUCAAGUUUGAUGAUGAUUUCCAUAUUUAUGUCUACAACAGAGGAUUGAGCAUCA
B2: chr7:152649051:152649153:-|CDS|ENSG00000196584|unk|FALSE|unique (ssRNA)
RNA: GGGAGUUCUACAGUCCGACGAUCAGCUCUGAAGAAAUAAUCAAAUACUGCCUGGGAAGAUUUUUUUUGGUGUACUGCAGUAGUAGCACCCACUUACUUCUUACACUUUACUCACUAGAAAGUAUGUUUUGUAGUCACCCAUCUCAACAGAGGAUUGAGCAUCA
B3: chr6:52791370:52791857:-|three_prime_utr|ENSG00000243955|control|control|control (ssRNA)
RNA: GGGAGUUCUACAGUCCGACGAUCGCUAAUGAACUCUUUCAAAUUAUAUGCUAAUUAAAUAAUACAACUCCUAUUCGCUGACUUAGUUAAAAUUGAUUUGUUUUCAUUAGGAUCUGAUGUGAAUUCAGAUUUCCAAUCUUCUCCCAACAGAGGAUUGAGCAUCA
B4: chr4:138171112:138171219:-|3pUTR|ENSG00000151012|msi1|FALSE|unique (ssRNA)
RNA: GGGAGUUCUACAGUCCGACGAUCUUUUUUUUUUUCACAUCAGUUUGAUCAGGAAAGUGUAUAACACAUCUUAGAGCAAGAGUUAGUUUGGUAUUAAAUCCUCAUUAGAACAACCACCUGUUUCACUAAUAACUUACCCCUGAUCAACAGAGGAUUGAGCAUCA
B5: ENSG00000124766:be:win_3851|3pUTR|ENSG00000124766|bound_else_gene|NA|bound_elsewhere_windowed (ssRNA)
RNA: GGGAGUUCUACAGUCCGACGAUCUCCGUUAAGGGUUUUUGUUUUUAAACUUUUUUUUGCCAUCCAUCCUGUGCAAUAUGCCGUGUAGAAUAUUUGUCUUAAAAUUCAAGGCCACAAAAACAAUGUUUGGGGGAAAAAAAAGAACAACAGAGGAUUGAGCAUCA
B6: chr19:41432845:41433434:-|three_prime_utr|ENSG00000105341|control|control|control (ssRNA)
RNA: GGGAGUUCUACAGUCCGACGAUCGCCCAGGCACCUCUCCCACCUAACCCAGAUGCAGGAGAGGAAGUGGGGAGGGGCAAUGUUAGGCAGUUCUCAUAUCCCCCUGCAUCCAUCACAAACCUAGAGUAUUUAUGGUAGAUGAGCCAACAGAGGAUUGAGCAUCA
B7: chr1:117959336:117959438:+|CDS|ENSG00000065183|unk|total|mutant (ssRNA)
RNA: GGGAGUUCUACAGUCCGACGAUCGAUUAUCUCAAGAGGGAAUGCGAGGCAAAAAGUGAAGUUAUGUUUUUUGCUGAUGCUACCCGCCACUUGGAAGAGAAGAAGAGGAAGAGGAAAAAGAGGGAGAAGUUGAUUCUAACGUUGCAACAGAGGAUUGAGCAUCA
B8: chr8:42175503:42175666:-|3pUTR|ENSG00000104368|msi1|FALSE|unique (ssRNA)
RNA: GGGAGUUCUACAGUCCGACGAUCAUGAAAGCAUGUCUCAAUAGUAAAAGAUAACAAGAUCUUUCAGGAAAGACGGAUUGCAUUAGAAAUAGACAGUAUAUUUAUAGUCACAAGAGCCCAGCAGGGCCUCAAAGUUGGGGCAGGCAACAGAGGAUUGAGCAUCA
B9: chr10:95606323:95606429:-|3pUTR|ENSG00000059573|unk|FALSE|bound_elsewhere (ssRNA)
RNA: GGGAGUUCUACAGUCCGACGAUCCCAUGGCUGCUUUGUGUCACCUCAGUGACUUACAGUCCCCCUUGGCAUUUAGUUGGUACUAGAGCCAGUCAUCCUUAACAAAUCUUUUCACAUUUUAUUUCUUUCACAUGUAGUCAUCUUCAACAGAGGAUUGAGCAUCA
B10: chr1:156742365:156742464:-|3pUTR|ENSG00000143321|msi1_unk|total|mutant (ssRNA)
RNA: GGGAGUUCUACAGUCCGACGAUCAUUUCUGAGGUGCACUGGGAGGCUCCCCUUCUAUUUGGGGCUUGAUGACUUUCUUUUUGCCGCUGGGGCUUUGAUGUUCCUUCCAGUGUCAUUUCUCAUCCACAUACCCUGACCUGGCCCCAACAGAGGAUUGAGCAUCA
B11: chr9:132262671:132262773:-|3pUTR|ENSG00000107290|unk|total|mutant (ssRNA)
RNA: GGGAGUUCUACAGUCCGACGAUCUGUGCAUUAUUUGACAUUUCCUUUGUCAUCUGCUUUUUAAGCAAAAAAGGGUUUUGUGUCCGAAAUUCUACUUGAGCAGAUUAUAAAGAGCUUUAAAAAACAACUUUCGGUUGCCAAAAGCAACAGAGGAUUGAGCAUCA
B12: chr7:33006061:33006162:+|3pUTR|ENSG00000122642|msi1_unk|FALSE|overlapping (ssRNA)
RNA: GGGAGUUCUACAGUCCGACGAUCGGCAUCUCAGACCACAAAUAGAGAAUUUGAUUCCUCAUUUGCCACAUAAGUCAUCUGCUUAGCUUUUCCUUUCCUUUUUUUUUUUUUUUUUUUUUCUGGAGGCAGAGUCUCCCUUUGUCGCAACAGAGGAUUGAGCAUCA
B13: chr22:20142972:20143073:+|CDS|ENSG00000099904|msi1|FALSE|unique (ssRNA)
RNA: GGGAGUUCUACAGUCCGACGAUCGGGGAUCAUGUGGCCCUGCAGCCCCUGCGCUCUGAGGGGGGGCCCCCCACGCCCCACCGUAGCAUUUUUGCCCCCCAUGCACUGCCCAACCGCAACGGCAGCCUGUCCUAUGACAGCCUGCAACAGAGGAUUGAGCAUCA
B14: chr19:13098382:13098626:+|3pUTR|ENSG00000008441|msi1|FALSE|unique (ssRNA)
RNA: GGGAGUUCUACAGUCCGACGAUCACGCAGUAUAUACGAGUAUCUCUAUAUAUAGUACUAAUGGAUUUGGUGUGCUUCCCCCUUAGCGUCCCCCUCCCUCUGCUCCUCCUCCUUCAGCCUGGUCUCCCCCUCUUCUCUGCCCUCCAACAGAGGAUUGAGCAUCA
B15: chr7:101138466:101138856:+|3pUTR|ENSG00000106366|msi1|FALSE|unique (ssRNA)
RNA: GGGAGUUCUACAGUCCGACGAUCGAGUGGGGGGACAGAGACUCAGAUGAGGACAGAGUGGUUUCCAAUGUGUUCAAUAGAUUUAGGAGCAGAAAUGCAAGGGGCUGCAUGACCUACCAGGACAGAACUUUCCCCAAUUACAGGCAACAGAGGAUUGAGCAUCA
B16: chr9:26926431:26926536:-|CDS|ENSG00000137055|unk|total|mutant (ssRNA)
RNA: GGGAGUUCUACAGUCCGACGAUCAGAGGUUUGGCAAUUUUGAGUGAAACAGAAUUUCUUUCCUGUGCAAAUGAUGCCCGUAUCCGAAGGUGGCAAAUCACUGGCGAGUGUCUUGAAGUAUAUUAUGGACAUACAAAUUAUAUUCAACAGAGGAUUGAGCAUCA
B17: chr1:23559171:23559278:-|CDS|ENSG00000117318|unk|FALSE|unique (ssRNA)
RNA: GGGAGUUCUACAGUCCGACGAUCAACCACUGCUACUCCCGCCUGCGGGAACUGGUACCCGGAGUCCCGAGAGGCACUCAGCUUAGCCAGGUGGAAAUCCUACAGCGCGUCAUCGACUACAUUCUCGACCUGCAGGUAGUCCUGCAACAGAGGAUUGAGCAUCA
B18: ENSG00000066855:stop:overlap|stop_codon|ENSG00000066855|stop_codon|NA|stop_codon (ssRNA)
RNA: GGGAGUUCUACAGUCCGACGAUCGAGUGUUGUCCCUUCCAGCUGGCUUUAUUCAGCCCCACGUGUCCAAGCAUUGUCUGGGAUAGCCUUGUAUUGGAAAACCUGGCCCAUUCUGUAAAUAAAGGCUCCACUAGAAAAGACUCGCAACAGAGGAUUGAGCAUCA
B19: ENSG00000147955:stop:overlap|stop_codon|ENSG00000147955|stop_codon|NA|stop_codon (ssRNA)
RNA: GGGAGUUCUACAGUCCGACGAUCCUUCCACCAGUGGAGAGAGGGCACCACCAAAAGUGAGGUCUUCUACCCAGGGGAGACGGUAGUACACGGGCCUGGUGAGGCAACAGCUGUGGAGUGGGGGCCAAACACAUGGAUGGUGGACAACAGAGGAUUGAGCAUCA
B20: chr15:74179522:74179623:-|3pUTR|ENSG00000137868|msi1|FALSE|unique (ssRNA)
RNA: GGGAGUUCUACAGUCCGACGAUCUCAUGACUCAGACCAGGUCCCACACUGAGCUGCCCACACUCGAGAGCCAGAUAUUUUUGUAGUUUUUAUGCCUUUGGCUAUUAUGAAAGAGGUUAGUGUGUUCCCUGCAAUAAACUUGUUCAACAGAGGAUUGAGCAUCA
B21: chr11:85659139:85659240:-|3pUTR|ENSG00000137504|msi1|FALSE|unique (ssRNA)
RNA: GGGAGUUCUACAGUCCGACGAUCGUCUGAUUUAGUAAAAUUUUAAAGCUAAAUAAUCUGAUGACUCUUGAAAGUUUAAUUGGUAGUAUGACAUUUAUGUUUUUUUCCCCCAGACUCACAGCCAAUACAAAGUUUUGAGACUCCCAACAGAGGAUUGAGCAUCA
B22: chr12:39550845:39550946:-|3pUTR|ENSG00000173208|unk|total|mutant (ssRNA)
RNA: GGGAGUUCUACAGUCCGACGAUCGGUUCCAAGUACCGUUUCAUAUUUGGCAACCGAUUCAUCUUAUUCUAAUAUGUUUGGAACCGCUUUUUGAUUCAAUGAGUCCCGGAAAAUCUGUUACACAUUGAAACCCAAGUCCAGAGACAACAGAGGAUUGAGCAUCA

These binders were tested against T1, UNK ZnF1-6 (called full-length) (assay: nsRBNS (natural sequence RNA bind-n-seq); RBNS binding buffer (assumed for nsRBNS): 25 mM Tris pH 7.5, 150 mM KCl, 3 mM MgCl2, 0.01% Triton X-100, 500 ug/ml BSA, 20 U/ml SUPERase-In, 4 C; UNK is unkempt and MSI1 is Musashi-1; names of the RNAs are library labels; protein concentration not given here; high values mean tight binding).
B1 was tested, and the binding signal was 0.443 enrichment R. Binder B2 has a binding signal of 0.631 enrichment R. With B3 the binding signal was 6.55 enrichment R. In the case of B4, the binding signal is reported as 2.58 enrichment R. Work on B5 yielded a binding signal of 0.635 enrichment R. For B6, the binding signal was 2.76 enrichment R. B7 was tested, and the binding signal was 0.706 enrichment R. B8 showed a binding signal of 9.38 enrichment R. In the case of B9, the binding signal is reported as 15.5 enrichment R. Binder B10 has a binding signal of 0.721 enrichment R. Work on B11 yielded a binding signal of 0.386 enrichment R. Binder B12 has a binding signal of 7.4 enrichment R. B13 gave a binding signal of 0.918 enrichment R. Binder B14 has a binding signal of 1.99 enrichment R. For B15, the binding signal was 1.62 enrichment R. B16 showed a binding signal of 0.428 enrichment R. Binder B17 has a binding signal of 0.81 enrichment R. B18 was tested, and the binding signal was 0.862 enrichment R. For B19, the binding signal was 0.758 enrichment R. B20 was tested, and the binding signal was 2.72 enrichment R. Binder B21 has a binding signal of 1.52 enrichment R. For B22, the binding signal was 0.201 enrichment R.
